Reference: article PMC4336329 (PLoS ONE, 2015)
About 2,200 (0.71%) of roughly 310,000 compounds showed an effect of 50% or more. The effect is printed as a negative number. The list shows a part of the results.

molecular target: human ether-à-go-go-related gene (hERG) potassium channel (human, UniProt Q12809); test: primary screen, population patch clamp on CHO cells stably expressing hERG
Sequence (Q12809 whole entry, looked up): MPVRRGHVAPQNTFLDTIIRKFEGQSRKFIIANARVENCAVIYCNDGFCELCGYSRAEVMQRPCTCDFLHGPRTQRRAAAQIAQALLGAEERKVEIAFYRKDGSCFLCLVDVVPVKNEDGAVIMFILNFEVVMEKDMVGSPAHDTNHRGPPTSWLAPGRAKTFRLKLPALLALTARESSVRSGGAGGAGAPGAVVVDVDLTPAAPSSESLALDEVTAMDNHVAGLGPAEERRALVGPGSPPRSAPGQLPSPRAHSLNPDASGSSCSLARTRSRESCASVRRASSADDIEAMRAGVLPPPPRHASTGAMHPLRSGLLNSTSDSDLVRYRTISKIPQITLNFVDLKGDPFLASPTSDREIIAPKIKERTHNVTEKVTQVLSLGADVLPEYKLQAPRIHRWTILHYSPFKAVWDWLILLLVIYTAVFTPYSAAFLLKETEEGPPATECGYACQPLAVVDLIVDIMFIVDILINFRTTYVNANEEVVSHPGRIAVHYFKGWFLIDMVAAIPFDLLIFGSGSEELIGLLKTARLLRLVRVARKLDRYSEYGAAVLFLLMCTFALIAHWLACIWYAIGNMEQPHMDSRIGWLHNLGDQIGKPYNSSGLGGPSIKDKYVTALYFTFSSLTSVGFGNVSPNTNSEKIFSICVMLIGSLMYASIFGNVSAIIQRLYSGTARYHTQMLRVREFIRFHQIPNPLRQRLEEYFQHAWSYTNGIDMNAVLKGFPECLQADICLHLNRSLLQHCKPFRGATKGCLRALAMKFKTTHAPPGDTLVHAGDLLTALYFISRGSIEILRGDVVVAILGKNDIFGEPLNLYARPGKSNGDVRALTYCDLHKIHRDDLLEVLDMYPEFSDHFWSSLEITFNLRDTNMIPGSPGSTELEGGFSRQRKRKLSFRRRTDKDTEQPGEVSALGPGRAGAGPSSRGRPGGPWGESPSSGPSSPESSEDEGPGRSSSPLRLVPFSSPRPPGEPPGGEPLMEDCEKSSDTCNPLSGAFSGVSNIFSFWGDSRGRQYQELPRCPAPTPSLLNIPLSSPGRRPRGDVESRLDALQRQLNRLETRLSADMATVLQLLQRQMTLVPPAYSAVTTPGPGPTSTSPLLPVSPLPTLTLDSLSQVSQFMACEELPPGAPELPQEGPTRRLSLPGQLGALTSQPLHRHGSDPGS

SMILES	hERG current change (%, negative = inhibition) at 1uM [%]
COc1cc(NC(=O)CNC(=O)Cn2c(C)cc3ccccc3c2=O)cc(OC)c1OC	23.8
CCN(CC)S(=O)(=O)c1cccc(-c2n[nH]c(=S)n2/N=C/c2ccc(OC)cc2)c1	18.5
Cc1ccc(C2(c3ccccc3)NC(=O)N(CC(=O)NCc3ccccc3)C2=O)cc1C (centres unmarked)	1.78
Nc1ccc(Oc2ccc3nc(-c4ccccc4)c(-c4ccc([N+](=O)[O-])cc4)nc3c2)cc1	2.87
CC(C)CC(=O)NC(=S)Nc1ccc(N2CCCC2)c(Cl)c1	13.8
CCc1nn2c(=O)c(S(=O)(=O)Nc3ccc(Cl)cc3)c(C)nc2s1	0.74
COc1ccc(NC2=NC3(CCCCC3)N=C(N)N2)cc1	5.3
Cc1ccc(S(=O)(=O)N2CCOCC2)cc1C(=O)N1CCC(Cc2ccccc2)CC1	11.2
CCc1noc(C)c1C(=O)Nc1ccc(S(=O)(=O)N2CCCC(C)C2)cc1 (centres unmarked)	2.28
Cc1ccc(C)c(NC(=O)C2CC(Cl)=CCC2C(=O)O)c1 (centres unmarked)	12.1
O=C1CN(C(=O)CSc2nc3cc(Cl)ccc3c(=O)n2Cc2ccccc2)c2ccccc2N1	4.34
O=C(CN1C(=O)CSc2ccc(S(=O)(=O)N3CCOCC3)cc21)NCCCN1CCCCC1	15
CN1CCN(C(=S)c2cn(CCOc3ccccc3F)c3ccccc23)CC1	5.13
CC(=O)NC1c2ccccc2C(=O)N1Cc1ccccc1 (centres unmarked)	8.91
CCOC(=O)C1(C(=O)OCC)CC1c1ccccc1 (centres unmarked)	6.22
O=CNc1ccc(S(=O)(=O)NCc2ccccc2)cc1	-0.826
CCN(Cc1ccccc1)C(=O)CN1C(=S)NC(C)(C)CC1C (centres unmarked)	3.12
CC(=O)N(C)c1ccc(NC(=O)c2ccc([N+](=O)[O-])cc2Cl)cc1	7.8
Cc1cccc(C)c1NC(=O)C1(NC(=O)c2cnccn2)CCCCC1	17.1
COc1ccccc1NC(=O)C(C)N1C(=O)C2CCCCC2C1=O (centres unmarked)	5.03
O=C(N/N=C/c1cccc(OC(=O)c2ccco2)c1)c1ccc(F)cc1	-5.05
COc1ccc(CCN2C(=O)CSC2=Nc2ccc(C)cc2C)cc1OC	13.7

SMILES	hERG current change (%, negative = inhibition) at 1uM [%]
COc1ccc(N2C(=O)C3CCCN3C2c2cc(OC)c(OC)cc2OC)cc1 (centres unmarked)	0.767
CCOc1ccc(NC(=O)CN(C)C(=O)c2cc(-c3ccc(OC)cc3)nc3ccccc23)cc1OCC	-6.94
CCOC(=O)c1c(NC(=O)CN2CCN(c3ccc(Cl)cc3)CC2)sc(C)c1C	7.11
NC1=NC(=O)C2(COC(c3cccnc3)OC2)S1 (centres unmarked)	14.7
Cc1ccc(CNc2cccnc2)cc1	14.4
COc1cc(/C=C(/NC(=O)c2ccccc2Cl)C(=O)O)cc(OC)c1OC	20.3
CN(C(=O)COC(=O)c1cc2c(s1)CCCCC2)C1CCS(=O)(=O)C1 (centres unmarked)	-2.75
O=C(O)c1cc2c(ccc3ccccc32)o1	9.92
CCC(C)C(=O)N1CCCC(c2nc(-c3cccs3)no2)C1 (centres unmarked)	9.89
CC(C)c1c(C(=O)N/N=C/c2cccc(OCc3ccccc3)c2)nnn1-c1nonc1N	26.9
O=C(N/N=C/c1ccc(OCc2ccc(F)cc2)cc1)c1ccccc1	-2.12
CCOC(=O)Cn1c2c(c(=N)c3c1CCC3)CCCC2.Cl	12.8
COc1ccc(C/C(N)=N/OC(=O)c2cccc([N+](=O)[O-])c2)cc1	-20
CC(C)COP(=O)(c1ccc(N(C)C)cc1)C(O)c1ccc(N(C)C)cc1 (centres unmarked)	13
O=C(NCc1ccccn1)c1cn(CCc2ccccc2)nn1	13
O=C(Nc1nccs1)c1cc2sccc2n1Cc1ccc(F)cc1	-1.3
COc1ccccc1CN1C(=O)c2ccncc2C1=O	-7.04
CCOC(=O)C1=C(C)N=c2s/c(=C\c3ccc(C(=O)O)cc3)c(=O)n2C1c1ccc(OC)cc1OC (centres unmarked)	11.8
CCCCNC(=O)c1ccccc1NC(=O)CN(c1ccccc1)S(=O)(=O)N(C)C	7.01
COc1cccc(NC(=O)Nc2ccccc2C(N)=O)c1	4.54
O=C(O)C1CCCCC1C(=O)Nc1cc(Cl)ccc1Cl (centres unmarked)	18.4
COc1ccc(/C=N/Nc2cc(C)nc(NS(=O)(=O)c3ccc(C)cc3)n2)cc1	0.0432
